In article PMC5501724, “Structural Basis for Specific Interaction of TGFβ Signaling Regulators SARA/Endofin with HD-PTP” (Structure(London, England:1993), 2017):
Residue numbers refer to the chain shown, from its start. Names may count otherwise. Results are given in words; binding and its absence hold for the method and conditions named. Some entries that bind do so weakly or less than the wild type.

T1: HD-PTP_(Bro1-CC), yeast two-hybrid construct (human) (UniProt Q9H3S7)
T1 sequence: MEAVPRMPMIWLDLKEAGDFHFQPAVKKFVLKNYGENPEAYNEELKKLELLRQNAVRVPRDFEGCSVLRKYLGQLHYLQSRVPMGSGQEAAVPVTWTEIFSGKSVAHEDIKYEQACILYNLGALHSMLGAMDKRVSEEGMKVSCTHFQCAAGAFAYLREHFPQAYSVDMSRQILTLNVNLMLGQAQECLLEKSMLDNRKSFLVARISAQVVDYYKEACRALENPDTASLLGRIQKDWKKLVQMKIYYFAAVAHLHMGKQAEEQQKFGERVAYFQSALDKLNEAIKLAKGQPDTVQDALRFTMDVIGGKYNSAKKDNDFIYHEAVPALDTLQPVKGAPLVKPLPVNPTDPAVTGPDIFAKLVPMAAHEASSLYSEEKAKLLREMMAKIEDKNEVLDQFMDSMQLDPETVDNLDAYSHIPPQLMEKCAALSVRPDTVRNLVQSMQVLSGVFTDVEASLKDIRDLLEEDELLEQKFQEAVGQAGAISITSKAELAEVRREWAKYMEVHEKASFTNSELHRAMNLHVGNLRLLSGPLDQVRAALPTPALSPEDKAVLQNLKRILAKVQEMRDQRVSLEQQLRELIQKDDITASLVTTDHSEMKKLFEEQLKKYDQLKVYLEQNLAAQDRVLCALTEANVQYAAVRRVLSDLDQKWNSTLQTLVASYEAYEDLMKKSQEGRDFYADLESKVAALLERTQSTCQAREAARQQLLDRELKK

B1: GST-CHMP4B (1-224), bacterially expressed (natural protein, human, UniProt Q9H444 1-224, looked up)
chain: MSVFGKLFGAGGGKAGKGGPTPQEAIQRLRDTEEMLSKKQEFLEKKIEQELTAAKKHGTKNKRAALQALKRKKRYEKQLAQIDGTLSTIEFQREALENANTNTEVLKNMGYAAKAMKAAHDNMDIDKVDELMQDIADQQELAEEISTAISKPVGFGEEFDEDELMAELEELEQEELDKNLLEISGPETVPLPNVPSIALPSKPAKKKEEEDDDMKELENWAGSM
notes: CHMP4B, residues 1-224, full length; In pGEX-4T1; also called CHMP4B-FL; full length GST-CHMP4B; source: E. coli C41 (DE3), purified (GSTrap HP)
B2: full-length SARA, yeast two-hybrid construct (protein, UniProt O95405 1-1425)
chain: MENYFQAEAYNLDKVLDEFEQNEDETVSSTLLDTKWNKILDPPSHRLSFNPTLASVNESAVSNESQPQLKVFSLAHSAPLTTEEEDHCANGQDCNLNPEIATMWIDENAVAEDQLIKRNYSWDDQCSAVEVGEKKCGNLACLPDEKNVLVVAVMHNCDKRTLQNDLQDCNNYNSQSLMDAFSCSLDNENRQTDQFSFSINESTEKDMNSEKQMDPLNRPKTEGRSVNHLCPTSSDSLASVCSPSQLKDDGSIGRDPSMSAITSLTVDSVISSQGTDGCPAVKKQENYIPDEDLTGKISSPRTDLGSPNSFSHMSEGILMKKEPAEESTTEESLRSGLPLLLKPDMPNGSGRNNDCERCSDCLVPNEVRADENEGYEHEETLGTTEFLNMTEHFSESQDMTNWKLTKLNEMNDSQVNEEKEKFLQISQPEDTNGDSGGQCVGLADAGLDLKGTCISESEECDFSTVIDTPAANYLSNGCDSYGMQDPGVSFVPKTLPSKEDSVTEEKEIEESKSECYSNIYEQRGNEATEGSGLLLNSTGDLMKKNYLHNFCSQVPSVLGQSSPKVVASLPSISVPFGGARPKQPSNLKLQIPKPLSDHLQNDFPANSGNNTKNKNDILGKAKLGENSATNVCSPSLGNISNVDTNGEHLESYEAEISTRPCLALAPDSPDNDLRAGQFGISARKPFTTLGEVAPVWVPDSQAPNCMKCEARFTFTKRRHHCRACGKVFCASCCSLKCKLLYMDRKEARVCVICHSVLMNAQAWENMMSASSQSPNPNNPAEYCSTIPPLQQAQASGALSSPPPTVMVPVGVLKHPGAEVAQPREQRRVWFADGILPNGEVADAAKLTMNGTSSAGTLAVSHDPVKPVTTSPLPAETDICLFSGSITQVGSPVGSAMNLIPEDGLPPILISTGVKGDYAVEEKPSQISVMQQLEDGGPDPLVFVLNANLLSMVKIVNYVNRKCWCFTTKGMHAVGQSEIVILLQCLPDEKCLPKDIFNHFVQLYRDALAGNVVSNLGHSFFSQSFLGSKEHGGFLYVTSTYQSLQDLVLPTPPYLFGILIQKWETPWAKVFPIRLMLRLGAEYRLYPCPLFSVRFRKPLFGETGHTIMNLLADFRNYQYTLPVVQGLVVDMEVRKTSIKIPSNRYNEMMKAMNKSNEHVLAGGACFNEKADSHLVCVQNDDGNYQTQAISIHNQPRKVTGASFFVFSGALKSSSGYLAKSSIVEDGVMVQITAENMDSLRQALREMKDFTITCGKADAEEPQEHIHIQWVDDDKNVSKGVVSPIDGKSMETITNVKIFHGSEYKANGKVIRWTEVFFLENDDQHNCLSDPADHSRLTEHVAKAFCLALCPHLKLLKEDGMTKLGLRVTLDSDQVGYQAGSNGQPLPSQYMNDLDSALVPVIHGGACQLSEGPVVMELIFYILENIV
B3: endofin(1–84), yeast two-hybrid construct (domain or fragment, UniProt Q7Z3T8 1-84)
chain: MDSYFKAAVSDLDKLLDDFEQNPDEQDYLQDVQNAYDSNHCSVSSELASSQRTSLLPKDQECVNSCASSETSYGTNESSLNEKT
B4: endofin(1–84) L15V, yeast two-hybrid construct (domain or fragment, UniProt Q7Z3T8 1-84)
chain: B3 chain with L15V
B5: CHMP4B lacking the C-terminal six amino acids (C4BΔCT), yeast two-hybrid construct (domain or fragment, UniProt Q9H444 1-218)
chain: MSVFGKLFGAGGGKAGKGGPTPQEAIQRLRDTEEMLSKKQEFLEKKIEQELTAAKKHGTKNKRAALQALKRKKRYEKQLAQIDGTLSTIEFQREALENANTNTEVLKNMGYAAKAMKAAHDNMDIDKVDELMQDIADQQELAEEISTAISKPVGFGEEFDEDELMAELEELEQEELDKNLLEISGPETVPLPNVPSIALPSKPAKKKEEEDDDMKELE
B6: endofin(85–1,539), yeast two-hybrid construct (domain or fragment, UniProt Q7Z3T8 85-1539)
chain: LKGLTSIQNEKNVTGLDLLSSVDGGTSDEIQPLYMGRCSKPICDLISDMGNLVHATNSEEDIKKLLPDDFKSNADSLIGLDLSSVSDTPCVSSTDHDSDTVREQQNDISSELQNREIGGIKELGIKVDTTLSDSYNYSGTENLKDKKIFNQLESIVDFNMSSALTRQSSKMFHAKDKLQHKSQPCGLLKDVGLVKEEVDVAVITAAECLKEEGKTSALTCSLPKNEDLCLNDSNSRDENFKLPDFSFQEDKTVIKQSAQEDSKSLDLKDNDVIQDSSSALHVSSKDVPSSLSCLPASGSMCGSLIESKARGDFLPQHEHKDNIQDAVTIHEEIQNSVVLGGEPFKENDLLKQEKCKSILLQSLIEGMEDRKIDPDQTVIRAESLDGGDTSSTVVESQEGLSGTHVPESSDCCEGFINTFSSNDMDGQDLDYFNIDEGAKSGPLISDAELDAFLTEQYLQTTNIKSFEENVNDSKSQMNQIDMKGLDDGNINNIYFNAEAGAIGESHGINIICEIVDKQNTIENGLSLGEKSTIPVQQGLPTSKSEITNQLSVSDINSQSVGGARPKQLFSLPSRTRSSKDLNKPDVPDTIESEPSTADTVVPITCAIDSTADPQVSFNSNYIDIESNSEGGSSFVTANEDSVPENTCKEGLVLGQKQPTWVPDSEAPNCMNCQVKFTFTKRRHHCRACGKVFCGVCCNRKCKLQYLEKEARVCVVCYETISKAQAFERMMSPTGSNLKSNHSDECTTVQPPQENQTSSIPSPATLPVSALKQPGVEGLCSKEQKRVWFADGILPNGEVADTTKLSSGSKRCSEDFSPLSPDVPMTVNTVDHSHSTTVEKPNNETGDITRNEIIQSPISQVPSVEKLSMNTGNEGLPTSGSFTLDDDVFAETEEPSSPTGVLVNSNLPIASISDYRLLCDINKYVCNKISLLPNDEDSLPPLLVASGEKGSVPVVEEHPSHEQIILLLEGESFHPVTFVLNANLLVNVKFIFYSSDKYWYFSTNGLHGLGQAEIIILLLCLPNEDTIPKDIFRLFITIYKDALKGKYIENLDNITFTESFLSSKDHGGFLFITPTFQKLDDLSLPSNPFLCGILIQKLEIPWAKVFPMRLMLRLGAEYKAYPAPLTSIRGRKPLFGEIGHTIMNLLVDLRNYQYTLHNIDQLLIHMEMGKSCIKIPRKKYSDVMKVLNSSNEHVISIGASFSTEADSHLVCIQNDGIYETQANSATGHPRKVTGASFVVFNGALKTSSGFLAKSSIVEDGLMVQITPETMNGLRLALREQKDFKITCGKVDAVDLREYVDICWVDAEEKGNKGVISSVDGISLQGFPSEKIKLEADFETDEKIVKCTEVFYFLKDQDLSILSTSYQFAKEIAMACSAALCPHLKTLKSNGMNKIGLRVSIDTDMVEFQAGSEGQLLPQHYLNDLDSALIPVIHGGTSNSSLPLEIELVFFIIEHLF
B7: endofin(1–84) L15P, yeast two-hybrid construct (domain or fragment, UniProt Q7Z3T8 1-84)
chain: B3 chain with L15P
B8: endofin(1–84) L15E, yeast two-hybrid construct (domain or fragment, UniProt Q7Z3T8 1-84)
chain: B3 chain with L15E

target: T1, HD-PTP_(Bro1-CC), yeast two-hybrid construct (human); assay: two-hybrid; directed yeast two-hybrid, Clontech Matchmaker Gold, Y2H Gold strain; interactions selected on QDO plates with 0.4% glucose and 1% galactose; in triplicate

Q: For B1, which binding is on record?
A: Its binding is “binds”.

Q: B2 was tested. Which binding did it give?
A: The binding was “binds”.

Q: Which binding does the source give for B3 here?
A: Its binding is “binds”.

Q: B4 was tested. Which binding did it give?
A: The binding was “binds”.

Q: Which binding does the source give for B5 here?
A: The binding was “no binding”.

Q: For B6, which binding is on record?
A: The binding was “no binding”.

Q: For B7, which binding is on record?
A: Its binding is “no binding”.

Q: Which binding does the source give for B8 here?
A: The binding was “no binding”.

target: HD-PTPFL (full-length), yeast two-hybrid construct (human) (UniProt Q9H3S7); assay: as above

Q: Which binding does the source give for B2 here?
A: The binding was “binds”.

Q: How did the binding turn out when B3 was run?
A: The binding was “binds”.

Q: Which binding does the source give for B6 here?
A: The binding was “no binding”.
